# In PubChem BioAssay AID463173 (ICCB-Longwood Screening Facility, Harvard Medical School, 2010):
# The campaign covered roughly 52,000 compounds. About 4,300 (8.3%) were called active. Rule as the data show it: active = survival mostly below about 52% (no sharp cut-off); inactive = mostly above about 56%. Some of the results follow.
# Tested on: DeltatarO mutant
# Test: growth inhibition of S. aureus wild type versus tarO mutant, primary screen, teichoic acid synthesis inhibitors, RN4220, OD600 (AID 463173)
# Settings: OD600, 18 h, stronger effect = lower value; concentration not given here unless noted
row,SMILES,survival
1,O=CNc1nonc1NNc1nonc1NC=O,inactive: 76%
2,N#Cc1cc2c(nc1SCC(=O)Nc1cccc(C(F)(F)F)c1)C1CCN2CC1,active: 4%
3,O=C(Cc1ccccc1)N1CCN(C2CCCC2)CC1,inactive: 59%
4,OC1(c2cccc(F)c2)CC2CCC(C1)N2Cc1nnnn1CCc1ccccc1 (configuration not stated),inactive: 85%
5,CC(=O)c1cccc(NC(=O)c2cccn(Cc3cccc(C)c3)c2=O)c1,inactive: 87%
6,COc1ccc(NC(=O)CN2C(=O)C(C)N=C(c3ccccc3)c3ccccc32)cc1OC (configuration not stated),inactive: 116%
7,Cc1[nH]c2c(C)cccc2c1CCN,active: 37%
8,Cc1ccc(OCC(=O)Nc2ccc(Cl)cc2C(=O)c2ccccc2)c(Br)c1,inactive: 75%
9,O=C(O)C12C3CCCC1C32c1ccccc1 (configuration not stated),inactive: 85%
10,COc1ccc(OCC(=O)N2CCN(Cc3cc(=O)n4nc(-c5ccc(OC)cc5)sc4n3)CC2)cc1,inactive: 90%
11,COc1ccc(CC2C(=O)NC(=O)N(c3ccccc3)C2=O)c(OC)c1 (configuration not stated),inactive: 91%
12,Cc1ccc(OCC(=O)N2CCN(CCc3ccncc3)CC2)cc1,inactive: 86%
13,Cc1cccc(Cn2cccc(C(=O)Nc3ccc(F)cc3F)c2=O)c1,inactive: 92%
14,COc1ccc(OCC(=O)N2CCN(Cc3ccc(SC)cc3)CC2)cc1,inactive: 157%
15,Cc1ccccc1-n1c(/C=C/c2ccc(N(C)C)cc2)nc2ccccc2c1=O,active: 8%
16,O=C(c1ccc2c(c1)N(Cc1ccc(F)cc1)C(=O)c1ccccc1S2)N1CCC2(CC1)OCCO2,inactive: 94%
17,COc1ccccc1CN1CCN(Cc2ccccc2OC)CC1,inactive: 77%
18,CC(C)NC(C)C(=O)c1ccc2ccccc2c1 (configuration not stated),inactive: 96%
19,Cc1nnc(NC(=O)c2cccn(Cc3cccc(F)c3)c2=O)s1,inactive: 76%
20,CN1C(=C2C(=O)NC(=O)NC2=O)Sc2ccccc21,inactive: 79%
21,COc1ccc(CN2CCN(Cc3ccccc3)CC2)cc1,inactive: 97%
22,CCN(CC)c1ccc2c3c(c(=O)oc2c1)C(c1cc2c(C)cc(C)cc2[nH]c1=O)C(C#N)=C(N)O3 (configuration not stated),inactive: 91%
23,Cc1ccc(OCC(=O)Nc2ccc(Cl)cc2C(=O)c2ccccc2)cc1C,inactive: 69%
24,COc1cccc(-c2nn3c(=O)cc(CN4CCN(C(=O)COc5ccccc5C)CC4)nc3s2)c1,inactive: 95%
25,CCOc1ccc(CN(CCc2ccc3c(c2)OCO3)Cc2ccc(OC)c(Br)c2)cc1,inactive: 67%
26,C[N+]12CN3CN(CN(C3)C1)C2,inactive: 81%

row,SMILES,survival
1,Cn1c(O)c(C=Nc2ccccc2)c(=O)n(C)c1=O,inactive: 98%
2,Cc1ccccc1CN1C(=O)C(C)N=C(c2ccccc2)c2ccccc21 (configuration not stated),inactive: 83%
3,Nc1c2c(nc3sc4c(c13)CCCC4)CCCC2,inactive: 78%
4,CCc1ccc(OCC(=O)N2CCN(CCc3ccncc3)CC2)cc1,inactive: 98%
5,Cc1ccc(C(C)C)c(OCC(=O)N2CCN(CCc3ccncc3)CC2)c1,active: 42%
6,Cc1cccc2cc(C=C(C#N)C#N)c(Cl)nc12,inactive: 83%
7,Cn1cccc1CNCCc1ccccc1,inactive: 82%
8,O=C(O)CCC1C(=O)NC(=O)NC1=O,inactive: 92%
9,Cc1ccccc1-n1c(/C=C/c2c(C)[nH]c3ccccc23)nc2ccccc2c1=O,active: 18%
10,CC(C(=O)c1ccc2ccccc2c1)N1CCCCC1 (configuration not stated),inactive: 98%
11,COc1ccc(OCC(=O)N2CCN(CCc3ccncc3)CC2)cc1,inactive: 82%
12,Cc1ccccc1-n1nc(C)c2c1NC(=O)CSC2c1ccc(Cl)cc1 (configuration not stated),active: 21%
13,O=C(Cn1cc(C(=O)c2ccccc2)c2ccccc21)NCc1ccco1,inactive: 75%
14,Cc1cccc(-n2c(-c3ccco3)nc3ccccc3c2=O)c1,inactive: 94%
15,Cc1c(C(c2ccc(Br)cc2)c2c(O)c3ccccc3oc2=O)c(=O)n(-c2ccccc2)n1C (configuration not stated),active: 49%
16,CNC(=O)Oc1c(Br)cc2sc(=O)oc2c1Br,inactive: 109%
17,Cc1ccc(Cn2cccc(C(=O)Nc3cc(C)on3)c2=O)cc1,inactive: 81%
18,CN1CCCSC1=Nc1ccccc1F,inactive: 93%
19,COc1ccc(Cc2c(O)[nH]c(=S)[nH]c2=O)cc1,inactive: 86%
20,CN(C)c1ccc(NC(=O)c2sc3nc4c(cc3c2N)N2CCC4CC2)cc1,inactive: 146%
21,Cn1c(O)c(C=NCCN2CCN(C(=O)c3ccccc3)CC2)c(=O)n(C)c1=O,inactive: 78%
22,Cc1ccc(-c2nn3c(=O)cc(CN4CCN(C(=O)COc5ccc(C)c(C)c5)CC4)nc3s2)cc1,inactive: 81%
23,CCCC1=Nc2cc(C(=O)NCCCN(CC)CC)ccc2Sc2ccccc21,inactive: 138%
24,Cc1ccc(-c2nc(CN3C(=O)CN=C(c4ccccc4)c4ccccc43)c(C)o2)cc1,inactive: 49%
25,CCCC1(CCC)C(=O)NC(=Nc2ccccc2)NC1=O,inactive: 95%
26,CN1CCN(Cc2cn3ccccc3n2)CC1,inactive: 104%

row,SMILES,survival
1,COc1cccc(NC(=O)c2cccn(Cc3ccccc3C)c2=O)c1,inactive: 83%
2,COC(=O)C1=C(C)OC(N)=C(C#N)C12C(=O)Nc1ccc(C)cc12 (configuration not stated),inactive: 93%
3,COc1ccccc1C1SCC(=O)Nc2c1c(C)nn2-c1cccc(C)c1 (configuration not stated),active: -1%
4,Cc1ccc(Cn2cccc(C(=O)Nc3ccc4c(c3)OCCO4)c2=O)cc1,inactive: 83%
5,CCC(C)N1CCN(Cc2ccccc2)CC1 (configuration not stated),inactive: 99%
6,OC1(c2cccnc2)CCNCC1,inactive: 105%
7,CCOc1ccc(CN(CCc2ccc3c(c2)OCO3)Cc2ccc(C)cc2)cc1,inactive: 46%
8,CC(C)Cc1nc2cccnc2n1C1CCNCC1,inactive: 120%
9,Cc1cccc(-n2nc(C)c3c2NC(=O)CSC3c2ccccc2Cl)c1 (configuration not stated),active: 43%
10,Cc1cccc(CN2C(=O)CN=C(c3ccccc3)c3ccccc32)c1,inactive: 73%
11,COc1ccc(-n2c(/C=C/c3cccc(F)c3)nc3ccccc3c2=O)cc1Cl,inactive: 85%
12,CCOC(=O)c1[nH]c(C)c(C=C(C#N)C#N)c1C,inactive: 58%
13,Cc1ccc(NC(=O)Cn2cc(C(=O)c3ccccc3)c3ccccc32)c(C)c1,inactive: 62%
14,COc1cccc(C2SCC(=O)Nc3c2c(C)nn3-c2ccc(C)c(Cl)c2)c1OC (configuration not stated),inactive: 55%
15,C=C1N2CCC(CC2)C1(O)c1ccc(C)cc1 (configuration not stated),active: 44%
16,Cc1cccc(-c2nn3c(=O)cc(CN4CCN(C(=O)COc5ccc(Cl)cc5)CC4)nc3s2)c1,inactive: 107%
17,Cc1cccc(CN2CCN(C(=O)COc3ccccc3)CC2)c1,inactive: 66%
18,CCn1cc(C=C(C#N)C#N)c2ccccc21,inactive: 93%
19,O=c1c2ccccc2nc(/C=C/c2ccccc2F)n1-c1cccc(O)c1,active: 2%
20,CCc1nc(SC)ncc1C(=O)Nc1ccc(Cl)cc1C(=O)c1ccccc1,inactive: 80%
21,O=C(Nc1ccc2c(c1)OCO2)c1cccn(Cc2cccc([N+](=O)[O-])c2)c1=O,inactive: 91%
22,CN1CCN(C(=O)COc2cccc3ccccc23)CC1,inactive: 98%
23,COc1ccc(NC(=O)CCc2nc(C3=CCN(Cc4cccc(Cl)c4)CC3)no2)c(OC)c1,inactive: 117%
24,O=S1(=O)N(Cc2ccccc2Cl)CCCN1Cc1ccccc1Cl,active: 10%
25,O=C1/C(=C\c2cc3c(cc2Cl)OCO3)N2CCC1CC2,inactive: 87%
26,Cc1ccccc1OCC(=O)N1CCN(CCc2ccccn2)CC1,inactive: 56%

row,SMILES,survival
1,Cc1cccc2sc(NC(=O)c3cccn(Cc4ccccc4)c3=O)nc12,inactive: 99%
2,CCCC1=Nc2cc(C(=O)NC3CCC(C)CC3)ccc2Sc2ccccc21 (configuration not stated),active: 39%
3,O=C(CN1C(=O)CN=C(c2ccccc2)c2ccccc21)Nc1cccc(C(F)(F)F)c1,inactive: 57%
4,Cc1cc(NC(=O)c2cccn(Cc3ccccc3)c2=O)no1,inactive: 96%
5,Nc1c(C(=O)Nc2cccc(Br)c2)sc2nc3c(cc12)N1CCC3CC1,active: 40%
6,c1cncc(C2CCCCN2Cc2ccc3c(c2)OCO3)c1 (configuration not stated),inactive: 97%
7,CC(C)n1cc(C(=O)N(C2CC2)C(C(=O)NC2CCCC2)c2ccccc2)cn1 (configuration not stated),inactive: 101%
8,CC(N)Cc1cn(Cc2ccccc2)c2ccccc12 (configuration not stated),inactive: 112%
9,CNCCCc1ccccc1,inactive: 95%
10,N#CC(C#N)=Cc1ccc(Sc2ccccc2)o1,inactive: 72%
11,CN1CCc2c(C#N)c(N)n(N)c(=S)c2C1,inactive: 103%
12,COC1CCCCC1NC1CCCC1 (configuration not stated),inactive: 66%
13,c1coc(CN2CCNCC2)c1,inactive: 73%
14,CN1CCc2c(C#N)c(Cl)nc(NCc3ccccc3)c2C1,inactive: 94%
15,O=C1C2CN3CN(C2)CC1(c1ccccc1)C3,inactive: 89%
16,CCN(CC)C(=O)c1ccc(NC(=O)CCn2nc(-c3ccc(C)cc3)c3ccccc3c2=O)cc1,inactive: 61%
17,Cc1cc(OCC(=O)N2CCN(CCc3ccccn3)CC2)cc(C)c1Cl,inactive: 55%
18,OCCCCNC1CCCCC1,inactive: 76%
19,CCOC(=O)C1=C(C)OC(N)=C(C#N)C12C(=O)N1c3c(cccc32)C(C)CC1(C)C (configuration not stated),inactive: 51%
20,CCOc1ccc(CN(CCc2ccc3c(c2)OCO3)Cc2cccc(C)c2)cc1,inactive: 45%
21,CCN(CC)C(=O)c1ccc(NC(=O)CCn2nc(-c3ccc(Cl)cc3)c3ccccc3c2=O)cc1,active: 47%
22,Cc1cccc(C2CC(=O)Oc3c2c(=O)oc2ccccc32)c1 (configuration not stated),inactive: 136%
23,COC(=O)c1ccc(NC(=O)c2cccn(Cc3ccccc3C)c2=O)cc1,inactive: 81%
24,CC(C)C(=O)c1cn(Cc2ccccc2C#N)c2ccccc12,inactive: 79%
